Results: paper PMC4336329 (PLoS ONE, 2015)
About 2,200 (0.71%) of roughly 310,000 compounds showed an effect of 50% or more. The effect is printed as a negative number. Some of the results follow.

Each compound was assayed against human ether-à-go-go-related gene (hERG) potassium channel (human, UniProt Q12809) (assay: primary screen, population patch clamp on CHO cells stably expressing hERG).
Sequence of human ether-à-go-go-related gene (hERG) potassium channel (Q12809 whole entry, looked up): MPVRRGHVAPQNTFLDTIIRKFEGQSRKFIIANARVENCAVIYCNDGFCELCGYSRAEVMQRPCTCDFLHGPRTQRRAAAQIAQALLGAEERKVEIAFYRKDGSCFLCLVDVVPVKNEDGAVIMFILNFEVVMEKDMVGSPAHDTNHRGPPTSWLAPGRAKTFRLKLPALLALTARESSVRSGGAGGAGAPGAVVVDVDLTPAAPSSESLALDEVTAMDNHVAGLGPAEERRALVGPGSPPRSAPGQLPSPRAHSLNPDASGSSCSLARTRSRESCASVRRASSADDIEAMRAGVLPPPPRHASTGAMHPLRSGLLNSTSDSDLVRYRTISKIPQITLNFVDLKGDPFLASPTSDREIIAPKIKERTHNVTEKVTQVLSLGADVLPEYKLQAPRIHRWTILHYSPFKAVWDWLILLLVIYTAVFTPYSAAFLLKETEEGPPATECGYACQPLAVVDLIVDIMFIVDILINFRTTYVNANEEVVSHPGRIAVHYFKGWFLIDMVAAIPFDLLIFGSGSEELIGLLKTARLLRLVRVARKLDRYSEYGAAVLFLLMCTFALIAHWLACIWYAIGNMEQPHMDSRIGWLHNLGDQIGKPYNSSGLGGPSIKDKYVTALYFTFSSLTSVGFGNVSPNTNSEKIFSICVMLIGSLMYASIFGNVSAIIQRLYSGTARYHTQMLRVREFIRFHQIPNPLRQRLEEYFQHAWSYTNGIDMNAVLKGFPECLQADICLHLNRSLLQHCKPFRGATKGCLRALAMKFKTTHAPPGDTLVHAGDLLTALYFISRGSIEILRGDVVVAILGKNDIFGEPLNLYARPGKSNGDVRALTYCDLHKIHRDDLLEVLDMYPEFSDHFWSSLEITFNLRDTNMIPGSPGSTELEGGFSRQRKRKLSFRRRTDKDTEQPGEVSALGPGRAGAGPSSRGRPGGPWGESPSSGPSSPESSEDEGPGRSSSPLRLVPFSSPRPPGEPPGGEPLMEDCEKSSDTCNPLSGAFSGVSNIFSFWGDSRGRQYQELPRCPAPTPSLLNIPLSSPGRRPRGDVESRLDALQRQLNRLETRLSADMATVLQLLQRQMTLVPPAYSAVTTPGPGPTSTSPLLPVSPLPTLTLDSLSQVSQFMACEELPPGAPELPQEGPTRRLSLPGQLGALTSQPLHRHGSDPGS

| Structure (SMILES) | hERG current change (%, negative = inhibition) at 1uM [%] |
| --- | --- |
| COc1ccccc1CC(=O)Nc1ccc([N+](=O)[O-])cc1O | 13.6 |
| FC(F)(F)c1ccccc1NC(=S)Nc1cccc(Cl)c1 | 10.7 |
| CCn1c(CCNC(=O)c2ccc(OC)cc2)nnc1SCC(=O)Nc1ccccc1F | 9.18 |
| N#CC1=C(N)Oc2cc(N)ccc2C1c1cc(Br)cs1 (stereo not shown) | -2.94 |
| CCCC(=O)NC(NC(=S)Nc1ccc(S(N)(=O)=O)cc1)C(Cl)(Cl)Cl (stereo not shown) | 3.2 |
| O=C(CSCc1ccc([N+](=O)[O-])cc1)Nc1ccccc1C(=O)O | 15.4 |
| CC1CCC(NC(=O)Cn2cc3c(n2)CCCC3)CC1 (stereo not shown) | 14.2 |
| Cc1[nH]c2ccccc2c1C(=O)COC(=O)C1CC(=O)N(Cc2ccccc2)C1 (stereo not shown) | 9.57 |
| C=CCNC(=O)c1ccccc1NC(=O)c1ccc(Cl)c(S(=O)(=O)Nc2cc(C)ccc2C)c1 | 14.2 |
| O=C(Cn1nnc(-c2ccc(N3CCOCC3)cc2)n1)OC1CCCCC1 | -4.08 |
| CCn1nnc2cc(C(=O)O)ccc21 | 12.5 |
| COc1ccccc1OCC(=O)Nc1c2c(nn1-c1ccc(F)cc1)CS(=O)(=O)C2 | 8.27 |
| Cc1ccccc1NC(=S)NCc1ccc2c(c1)cc(C)n2C | 5.37 |
| CN(C)c1ccc(Nc2ncnc3ccc(Br)cc23)cc1 | 14.8 |
| CCCC(=O)N1CCN(c2ccc(NC(=O)c3ccc(Br)o3)cc2)CC1 | 2.26 |
| CCOc1ccc(C(=O)NCC(=O)N2CCC(C)CC2)cc1OCC | 7.39 |
| CCOc1cc(S(=O)(=O)N2CCN(c3ccc(F)cc3)CC2)c(OCC)cc1-n1cnnn1 | -0.931 |
| CCOc1ncccc1C(=O)N1CCN(C(=O)c2ccccc2)CC1 | 18.7 |
| Cc1nc(N2CCN(Cc3ccc4c(c3)OCO4)CC2)c2cc(-c3ccccc3)sc2n1 | 10.9 |
| CN(CC(=O)NCCc1ccccc1)Cc1ccco1 | 12.1 |
| COc1ccccc1NC(=O)CSc1nnc2ccccn12 | 8.34 |
| CC1CCC(C(C)C)C(OC(=O)COC(=O)c2cccn2C)C1 (stereo not shown) | 17.6 |
| CC(Nc1cc(N2CCCC2)ccc1[N+](=O)[O-])c1ccccc1 (stereo not shown) | 7.88 |

| Structure (SMILES) | hERG current change (%, negative = inhibition) at 1uM [%] |
| --- | --- |
| CC1(C)CN(C(=S)Nc2ccc(F)cc2F)C1=O | 11.1 |
| O=C(NNC(=O)c1nn(-c2ccc(F)cc2)ccc1=O)c1ccc(Cl)cc1 | -2.41 |
| Cc1ccc(NC(=O)COC(=O)CN2C(=O)NC(C)(C)C2=O)cc1S(=O)(=O)N1CCOCC1 | 14.4 |
| COc1ccc(CCN2C(=O)CC(N3CCN(S(=O)(=O)c4ccccc4)CC3)C2=O)cc1 (stereo not shown) | 1.91 |
| OCCN1CCN(c2nc(-c3ccccc3O)nc3ccccc23)CC1 | 5.86 |
| CN(C)/C=C(\C(=O)c1ccccc1)c1nnnn1-c1ccccc1 | 12.4 |
| COc1cccc(-c2nnc3sc(-c4ccccc4)nn23)c1 | 8.88 |
| Cn1nnnc1SCC(=O)c1ccc2c(c1)OCCO2 | 11.8 |
| Cc1cccc(-n2c(SCCC(=O)O)nnc2-c2cccs2)c1C | 13.4 |
| Cc1ccc(NC(=O)C(=O)c2c[nH]c3ccccc23)cc1 | 16.3 |
| CC(=O)N/N=C(/C)c1ccc(NC(=O)c2csc(C)c2C)cc1 | 4.17 |
| Cc1ccc2ccc(S(=O)(=O)NCc3ccco3)cc2c1 | 9.89 |
| Cc1ccc2c(c1)c1c3n2CCN(C(=O)Cn2c(-c4ccccc4)noc2=O)C3CCC1 (stereo not shown) | 7.24 |
| CCc1ccc(C(=O)Nc2cccnc2Oc2ccc(Cl)cc2)cc1 | 3.24 |
| Cc1ccc(-c2csc(N=C(N)N)n2)cc1 | 11 |
| CCOC(=O)C1(CC2CC2)CCN(Cc2ccc(O)c(Cl)c2)CC1 | 5.92 |
| Cc1nc(-c2ccccc2O)n(-c2ccccc2)n1 | 11.6 |
| O=C(Nc1ccccc1)c1cc([N+](=O)[O-])ccc1Cl | 10 |
| S=C(Nc1ccccc1Cl)N(Cc1ccccc1)Cc1ccccn1 | 2.77 |
| O=C(Nc1ccccc1)C(c1ccccc1)c1ccccc1 | 8.8 |
| COc1ccc(CCN(C(=O)C(F)(F)F)C(C(=O)NC2CCCC2)c2cccs2)cc1 (stereo not shown) | 5.29 |
| COc1ccc(OC)c(NC(=O)CCCCCn2nnc3ccccc3c2=O)c1 | 1.62 |
| O=C(c1ccccn1)c1ccc2ccccc2n1 | 11.3 |

| Structure (SMILES) | hERG current change (%, negative = inhibition) at 1uM [%] |
| --- | --- |
| COc1ccccc1/C=C/C(=O)OCCN1C(=O)c2ccccc2C1=O | -0.119 |
| CC(C)CNC(=O)COC(=O)c1ccc2c(c1)C(=O)N(Cc1ccco1)C2=O | 13.5 |
| CC(C)=CCN1CCN(Cc2ccc(Oc3ncccn3)cc2)CC1CCO (stereo not shown) | 2.09 |
| Nc1nc(NCc2ccccc2)nc(NCc2ccccc2)c1[N+](=O)[O-] | 13.5 |
| CC(NCc1ccccc1O)C12CC3CC(CC(C3)C1)C2.Cl (stereo not shown) | 14.3 |
| COc1cc(/C=N/NC(=O)c2ccncc2)ccc1OC(=O)c1ccc([N+](=O)[O-])cc1 | 7.59 |
| CC(Oc1cc2oc(=O)c3c(c2cc1Cl)CCCC3)C(=O)NCc1cccnc1 (stereo not shown) | -4.57 |
| CCOC(=O)C1=C(N)OC2=C(C(=O)CCC2)C12C(=O)N1c3c(ccc(C)c32)C(C)=CC1(C)C (stereo not shown) | -8.24 |
| COc1ccc(CN(C(=O)c2ccccc2OC)C2CCS(=O)(=O)C2)cc1 (stereo not shown) | 0.962 |
| O=C(Nc1nnc(CSCc2ccc(F)cc2)s1)c1ccc([N+](=O)[O-])cc1 | 4.5 |
| Cc1noc(NS(=O)(=O)c2ccc(NC(=O)/C=C/c3ccc(Br)cc3)cc2)c1C | 13.5 |
| NC(=O)C1(N2CCCCC2)CCN(C(=S)NCCc2ccccc2)CC1 | 5.79 |
| COc1cccc(C2=NOC(C(=O)Nc3cc(C)nn3-c3ccccc3)C2)c1OC (stereo not shown) | 5.72 |
| Cc1cc(C)cc(NC(=O)C(C)N2C(=O)c3ccccc3C2=O)c1 (stereo not shown) | 13.4 |
| Cc1ccc(NC(=O)N2CCCC2C(=O)Nc2ccc3c(c2)OCO3)cc1 (stereo not shown) | 10.4 |
| c1ccc(-c2n[nH]c3c2CCC3)cc1 | 10.1 |
| CCOc1ccc(-c2nonc2NC(=O)c2ccco2)cc1 | 6.42 |
| CC(C)C(=O)Nc1ccc(C(=O)N2CCCCCC2)cc1 | 6.54 |
| Cc1cccc(N(CC(=O)N2CCCCCC2)S(C)(=O)=O)c1C | 9.58 |
| O=C(NC(NC(=S)Nc1ccc(Cl)cc1)C(Cl)(Cl)Cl)c1ccco1 (stereo not shown) | 0.276 |
| COc1ccc(NC(=O)COC(=O)c2c3c(nc4ccccc24)CCCC3)cc1 | 8.15 |
| CC1CCCCN1C(=O)Nc1cccc(C(F)(F)F)c1 (stereo not shown) | 9.57 |
| O=C(CSc1ccccc1C(=O)O)NC1CCCCCC1 | 10.1 |

| Structure (SMILES) | hERG current change (%, negative = inhibition) at 1uM [%] |
| --- | --- |
| CC1CCCCC1NC(=O)CSc1ccc([N+](=O)[O-])cc1 (stereo not shown) | 0.651 |
| O=C(CNC(=S)N(Cc1ccccc1)Cc1cccnc1)NCCN1CCOCC1 | 10.5 |
| Cc1ccc(CCNC(=O)C2CC(c3ccc(C(F)(F)F)cc3)=NO2)cc1 (stereo not shown) | 15.6 |
| CC(C)Oc1ccc(C(=O)OCC(=O)NCCNC(=O)COC(=O)c2ccc(OC(C)C)cc2)cc1 | 8.62 |
| CCCOC(=O)Cn1cnc2scc(-c3ccc(C)cc3)c2c1=O | 10.5 |
| O=C(NCCCN1CCCC1=O)c1cccs1 | 4.94 |
| O=P(C(Cl)Cl)(N1CCOCC1)N1CCOCC1 | 17.8 |
| COc1ccc(NC(=O)Oc2cc(C)ccc2C(C)C)cc1 | 8.47 |
| CCc1ccc2nc3sc(C(=O)O)cc3cc2c1 | 19.2 |
| Cc1nc2ccccc2cc1C(=O)N(C)Cc1ccccc1 | 16.3 |
| CCOc1ccccc1Nc1cc(C)nc2nnnn12 | 6.21 |
| COc1cc(/C=C2\SC(=S)N(CCC(=O)Nc3ccccc3O)C2=O)cc(OC)c1OC | 12.8 |
| Cc1ccn2c(NC(C)(C)C)c(-c3cccs3)nc2c1 | 4.49 |
| CC(=O)Nc1cc(C(=O)N2CCOCC2)ccc1S(=O)(=O)c1ccc(C)cc1 | 14.9 |
| CNC(=S)NNC(=O)c1sccc1C | -1.58 |
| COc1cccc(OC)c1C(=O)Nc1nc2ccc(S(C)(=O)=O)cc2s1 | 0.628 |
| Cl.O=C(O)CN1C2=NCCCN2c2ccccc21 | 15.8 |
| CCOC(=O)c1nnn(-c2ccc(OC)cc2)c1N | 10.4 |
| COc1ccc(/C=N/Nc2nnc(Cc3ccc(OC)c(OC)c3)c(=O)[nH]2)cc1 | 10.5 |
| N#CC1=C(N)N=C(SCc2ccccc2)C(C(N)=O)C12CCCCC2 (stereo not shown) | 3.52 |
| COc1cc(NC(C)=O)ccc1-c1cc2ccccc2oc1=O | 8.15 |
| COCCN(C(=O)/C=C/c1ccccc1)c1c(N)n(Cc2ccccc2)c(=O)[nH]c1=O | 8.91 |
